Measured values reported in the RNAGym collection of RNA variant scans (doi:10.7554/elife.90254).
The source gives no read counts; variants with many changes may rest on few reads.

B1: OR4K15 (parent)
chain: GUUAACGGUCAUAGGCCAUGGAAACUAGGAGCACCAUUUCGCUGCCAGUGAAGAAAUGAACAAAGAAAAUCUGGGCCAGGCAGGCAUCAAAAGAAAUAGUCUUGCGCUCAACCAGAAAGUCUGUAAUCAUUUUAAGGGUA

Variants of: B1
Assay: self-cleavage, relative activity (ratio to wild type); higher = more cleavage; in vitro, sequencing; the parent is a self-cleaving ribozyme
U19A C42A A96G U122C gave a self-cleavage of 1.1. A18G C109U A114G showed a self-cleavage of 0.54. C40A A59G A92G U120C A125G A129G showed a self-cleavage of 0.11. Variant A13G U19C A33G A52G A60G has a self-cleavage of 0.85. In the case of A64G G79A A86G A117G G138C, the self-cleavage is reported as 0.08. In the case of A23G A69U G93U U131C, the self-cleavage is reported as 0.76. Variant U49C A66C G74A U87C has a self-cleavage of 0.05. In the case of C16U A67G A126G, the self-cleavage is reported as 1.02. U9C G84A U127C U130C gave a self-cleavage of 1.98. For A5G A11G A30G A64G, the self-cleavage was 1.06. With U97C A117G U131C the self-cleavage was 0.26. In the case of G1U A56G U108C A114G, the self-cleavage is reported as 0.05. Variant U38C A110G U127C has a self-cleavage of 0.08. Variant A63G U103C A114C has a self-cleavage of 0.05. A30G A116G U127C gave a self-cleavage of 0.53. Work on A11G G44A A62G A111G yielded a self-cleavage of 0. For A90G U102C A110U A114G U122A, the self-cleavage was 0.3. For A54G A68G A116G, the self-cleavage was 0.5. Work on U2A A52U A129G yielded a self-cleavage of 0.88. U9C A23G A96U gave a self-cleavage of 1.38. In the case of A11G C46U U127C, the self-cleavage is reported as 0.44. For U9C A82U A129G, the self-cleavage was 0.22. Work on A22G A66G A94G yielded a self-cleavage of 1.54. For U9C A27G U122G, the self-cleavage was 2.06. A18U A55G C71U U103C showed a self-cleavage of 0.08. In the case of A54U U70C A96G, the self-cleavage is reported as 0.75. Work on A5G A51G A68G U133C yielded a self-cleavage of 2.15. U9C A11U A23U A94U gave a self-cleavage of 1.84. For A47G A64U G106C, the self-cleavage was 0.05. G7A G20A C35A showed a self-cleavage of 2.06. Work on A59G U124A U130C yielded a self-cleavage of 0.91. For A11G A33U A95G, the self-cleavage was 0.98. Variant A22G C45U U120C C121U U130C has a self-cleavage of 0.75. With A11U A24G A51G A62C A125G the self-cleavage was 0.58. With U39C A55G A67G A116G the self-cleavage was 1.05. A78U U108C C109A A116G gave a self-cleavage of 0.01. A18G U87C C113U A125G showed a self-cleavage of 0.01. Work on U39C U43A A68G A69G A82G A117G yielded a self-cleavage of 0.33. With A11C A125C U132C the self-cleavage was 1.1. For U38C A52U A68G, the self-cleavage was 1.46. In the case of C35U A51U G58A, the self-cleavage is reported as 0.75. For U9A C45G A59U A111G, the self-cleavage was 0.01. With A5G G31C U37C the self-cleavage was 1.48. A30G U43A U122C U130C gave a self-cleavage of 1.1. In the case of A11G A30G A140G, the self-cleavage is reported as 0.54. Work on U57C A96G U108C yielded a self-cleavage of 0.06. For U70C A117G U132A, the self-cleavage was 2.17. In the case of U2A U122A A129G, the self-cleavage is reported as 0.42. Work on U12C A54G U122A yielded a self-cleavage of 0.8. A59G G74U A96G U127C gave a self-cleavage of 0.06. In the case of U2A U19A A22G A33G G48A, the self-cleavage is reported as 0.96. With U39C U43C A62G A89G U124C the self-cleavage was 1.39. A60G A69U A125U showed a self-cleavage of 2.15. U19C A67G U87C gave a self-cleavage of 1.16. In the case of U3A A82G U103C A110G, the self-cleavage is reported as 0.14. A5U G104A A135G gave a self-cleavage of 0.15. A5G U38C A118G U130C showed a self-cleavage of 0.59. With A56G A68G U87G A89G A91G A95G C112A the self-cleavage was 0.03. Work on A23G A68G A91G A125G yielded a self-cleavage of 0.55. A96G A125G G137U showed a self-cleavage of 0.91. Variant A22G U43A A116G U120C A135U has a self-cleavage of 0.46. Work on U19G A33G A67G yielded a self-cleavage of 1.55. In the case of A11G A60G A69G, the self-cleavage is reported as 0.75. In the case of A55U A60C A69U, the self-cleavage is reported as 0.51. Variant A67G U100C G106A has a self-cleavage of 0.01. In the case of U26A U108A A117G, the self-cleavage is reported as 0.01. Work on A30G A59G U103A yielded a self-cleavage of 0.57. A13U A23G U49C A63G U122C U130G showed a self-cleavage of 0.69. Variant U12C A13G A55G U130C has a self-cleavage of 1.15. In the case of A47G U139A A140G, the self-cleavage is reported as 1.05. U39A A52G U131C gave a self-cleavage of 0.16. In the case of U37A A117C U120C U139A, the self-cleavage is reported as 0.43. With C32U A63G C112A the self-cleavage was 0.05. G20U A23G A59G A111G A126G showed a self-cleavage of 0.01. In the case of A22U A60G A110G, the self-cleavage is reported as 0.1. With A47U A126G U127C the self-cleavage was 0.21. In the case of U26C U103C A116G, the self-cleavage is reported as 0.01. In the case of U37C U72C A116G, the self-cleavage is reported as 0.25. In the case of A27U A51G G80A, the self-cleavage is reported as 0.21. A23G A62G U131C gave a self-cleavage of 0.49. For A60G U70C A91G A116U, the self-cleavage was 0.13. Variant A91G G104C U108C has a self-cleavage of 0. In the case of A63G A78U U131C, the self-cleavage is reported as 0.22. With A18C C40A A59G U122C the self-cleavage was 0.59. With A47U A62G A69C A96G the self-cleavage was 0.46. Variant A86U A94U U132A has a self-cleavage of 1.64. In the case of U3C A60G U120C, the self-cleavage is reported as 0.64. In the case of U2C A11G A60G, the self-cleavage is reported as 1.49. For A69U A96G U100C, the self-cleavage was 2.4. Variant G20A A47G A51U A86G U108C G115A has a self-cleavage of 0.01. A18G U37C A54G gave a self-cleavage of 0.78. A22U A24G A96G A111G showed a self-cleavage of 0.02. Work on A82U U87C U102C U124C yielded a self-cleavage of 0.18. Work on U9C A86G A118U yielded a self-cleavage of 0.82. C46A A89G U131C showed a self-cleavage of 1.53. Variant A5G A18C A52G U122C has a self-cleavage of 0.71. A30G A51U A117U gave a self-cleavage of 1. A22G G28A A86G A118G U122G gave a self-cleavage of 1.63. Variant U38C A67G A95G U120C has a self-cleavage of 1.6. U49C A91G U130C A140G showed a self-cleavage of 0.57. U19A A54U A60G A117G U139C gave a self-cleavage of 1.42. Work on A51U A126G U139A yielded a self-cleavage of 0.71. A5G A60G A62G A78G U87C showed a self-cleavage of 0.09. In the case of U12C A56G U127C, the self-cleavage is reported as 1.24. Variant A5G A36G U43C A66G A129G has a self-cleavage of 0.59. Work on A30G C45G A78G U122G yielded a self-cleavage of 0.3. A11G A47U A60G showed a self-cleavage of 0.42. U39C A56G U124C showed a self-cleavage of 1.18. With A66G A94G U103C the self-cleavage was 1.26. In the case of A54G A60G G75A A86U U102C, the self-cleavage is reported as 0.19. With A18G U19A U38A the self-cleavage was 1.44. A5U A47C A98G A110G showed a self-cleavage of 0.06. For C35A A59G A140G, the self-cleavage was 1.57. A18G U43G A59G A116G A129C gave a self-cleavage of 0.49. For U38C A89G U108C, the self-cleavage was 0. With U38C C40U U108C A110U the self-cleavage was 0.01. A56G A66G U130C gave a self-cleavage of 1.91. In the case of A64G A90G A92G A116G, the self-cleavage is reported as 0.34. A23G U26C A98G showed a self-cleavage of 0.69. Work on U3C A23U A90G yielded a self-cleavage of 0.53. Variant A60G U72C A82U A89U has a self-cleavage of 0.13. A63C A64G A92G U97C showed a self-cleavage of 1.44. With A11C A23G A62G the self-cleavage was 0.69. With U9C A27G A51G A68G G83U A95G U132C the self-cleavage was 0.37. U43C A64G A92G G115A showed a self-cleavage of 0.02. Work on U38C U39C U70C C81U yielded a self-cleavage of 0.21. Variant A24G A36U A52G U102C has a self-cleavage of 1.16. Variant C6A A13U U39C U57A G136A has a self-cleavage of 0.87. A11C A47G A51G A62G U124C U127C showed a self-cleavage of 0.38. With A22U A92G U130C the self-cleavage was 1.03. For U49C A69G A92G, the self-cleavage was 1.32. A24U U87C A95G U108C A135G gave a self-cleavage of 0. Work on U9C C16U A51U A89G U127C yielded a self-cleavage of 0.99. Work on U49A A56U A94G yielded a self-cleavage of 1.55. For U39C U49C A54G A116G, the self-cleavage was 0.22. In the case of G7A U37C A91G A117G U130C, the self-cleavage is reported as 0.89. Variant A56G A78U U87C A118G has a self-cleavage of 0.16. With U9C U37C C61U A67G U102C the self-cleavage was 1.4. U2C U39A A55G A110G A118G U132C showed a self-cleavage of 0.14. A18U A22U A69U gave a self-cleavage of 1.69. Variant A36U A51G U120C has a self-cleavage of 0.79. For A69G U72A A114G A125G, the self-cleavage was 0.05. Work on A66G A98G U124C yielded a self-cleavage of 0.31. A55G A94G C128A U132C gave a self-cleavage of 0.82. U2A A4G A30U A114U showed a self-cleavage of 0.39. Work on U2C A66U U120C U130C yielded a self-cleavage of 0.25. In the case of A30U A55G U103C C121G, the self-cleavage is reported as 0.49. For A18U U87C U102C, the self-cleavage was 2.35. U9C U49C U100A U122C gave a self-cleavage of 0.53. Work on A68G U102C U122C yielded a self-cleavage of 1.72. U9C A129G A135G showed a self-cleavage of 0.86. With U9C A18G A86G A129G the self-cleavage was 2.08. A36G G44A A95U gave a self-cleavage of 1.52. For U19A G80A U122C, the self-cleavage was 0.22. With A18U A22G A129G the self-cleavage was 0.57. In the case of A13G A18G U37C G83C U108C A140U, the self-cleavage is reported as 0.02. Variant U39C U70C U139C has a self-cleavage of 1.38. Work on A60G A64G A86U A96U yielded a self-cleavage of 1.48. With A55U G73A A94G A95G U100C the self-cleavage was 0.21. In the case of A27G A82G A86G U100C, the self-cleavage is reported as 0.99. In the case of A36G A55G A92G A126G, the self-cleavage is reported as 0.74. Work on U19C A52G A114U yielded a self-cleavage of 0.11. With A18U G29A A54G U57C A114U A118G the self-cleavage was 0.02. Variant G1U U19C A47G A63G U72A U87C U103C A110G has a self-cleavage of 0.03. C6A C32A A68G A140G gave a self-cleavage of 1.63. Work on U37C A95G A117C A118G yielded a self-cleavage of 0.19. With A23G A33G U100C U122A the self-cleavage was 1.32.
